pIC50: −log10 of the molar value. By IC50 is meant the dose at which the fit gives 50% viability; where the fit passes the top or lowest dose, that dose stands as a limit. AUC is the area under the same curve over the 256-fold range up to the top dose, as a fraction; the more sensitive the line, the further below 1. For some assays here: A top dose marked as inferred comes from the curve model; the source does not state it.
Columns and labels:
Assay in all cases: Viability of human cancer cell lines after 72 h of drug (GDSC screen)
XAV 939 = compound: Oc1nc(-c2ccc(C(F)(F)F)cc2)nc2c1CSCC2 [XAV 939]; details: top dose 5 µM; top dose inferred
Method: (§1)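 Human cancer cell lines in 384-well plates, medium with 10% serum, drug for 72 h over a 256-fold dose range (nine 2-fold or five 4-fold steps up to the top dose). Adherent lines were fixed and stained with the nucleic acid dye Syto60, suspension lines read with resazurin; signal relative to control wells, capped at 0 and 100%. One two-parameter sigmoid per drug and line, fitted in a mixed model over all curves with the slope shared within a line.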

YK 4-279 = compound: COc1ccc(C(=O)CC2(O)C(=O)Nc3c(Cl)ccc(Cl)c32)cc1 [YK 4-279]; details: top dose 10 µM
Method: as §1

Bexarotene = compound: C=C(c1ccc(C(=O)O)cc1)c1cc2c(cc1C)C(C)(C)CCC2(C)C [Bexarotene]; details: top dose 8 µM
Method: as §1

GSK-650394 = compound: O=C(O)c1ccc(-c2c[nH]c3ncc(-c4ccccc4)cc23)cc1C1CCCC1 [GSK-650394]; details: top dose 16 µM; top dose inferred
Method: as §1

BMS-345541 = compound: Cc1ccc2nc(NCCN)c3ncc(C)n3c2c1 [BMS-345541]; details: top dose 16 µM
Method: as §1

AZD7762 = compound: NC(=O)Nc1cc(-c2cccc(F)c2)sc1C(=O)N[C@H]1CCCNC1 [AZD7762]; details: top dose 2 µM
Method: as §1

Etoposide = compound: COc1cc([C@@H]2c3cc4c(cc3[C@@H](O[C@@H]3O[C@@H]5CO[C@@H](C)O[C@H]5[C@H](O)[C@H]3O)[C@H]3COC(=O)[C@H]23)OCO4)cc(OC)c1O [Etoposide]; details: top dose 16 µM
Method: as §1

NPK76-II-72-1 = compound: COc1cc(C(=O)NC2CCN(C)CC2)ccc1Nc1ncc2c(n1)N(C1CCCC1)C(C)CC(=O)N2C [NPK76-II-72-1]; details: top dose 10.24 µM; top dose inferred
Method: as §1

CHSA0108 (chondrosarcoma, adherent)
AUC (XAV 939): 0.957
pIC50 (XAV 939): < 5.30
AUC (YK 4-279): 0.781
pIC50 (YK 4-279): 5.32
AUC (Bexarotene): 0.973
pIC50 (Bexarotene): < 5.10
AUC (GSK-650394): 0.961
pIC50 (GSK-650394): < 4.80
AUC (BMS-345541): 0.873
pIC50 (BMS-345541): < 4.80
AUC (AZD7762): 0.669
pIC50 (AZD7762): 6.40
AUC (Etoposide): 0.731
pIC50 (Etoposide): 5.29
AUC (NPK76-II-72-1): 0.715
pIC50 (NPK76-II-72-1): 5.54

CHSA8926 (chondrosarcoma, adherent)
AUC (XAV 939): 0.961
pIC50 (XAV 939): < 5.30
AUC (YK 4-279): 0.726
pIC50 (YK 4-279): 5.44
AUC (Bexarotene): 0.98
pIC50 (Bexarotene): < 5.10
AUC (GSK-650394): 0.977
pIC50 (GSK-650394): < 4.80
AUC (BMS-345541): 0.906
pIC50 (BMS-345541): < 4.80
AUC (AZD7762): 0.769
pIC50 (AZD7762): 5.97
AUC (Etoposide): 0.833
pIC50 (Etoposide): < 4.80
AUC (NPK76-II-72-1): 0.815
pIC50 (NPK76-II-72-1): 5.05

COLO-320-HSR (large intestine, suspension)
AUC (XAV 939): 0.987
pIC50 (XAV 939): < 5.30
AUC (YK 4-279): 0.802
pIC50 (YK 4-279): 5.38
AUC (Bexarotene): 0.982
pIC50 (Bexarotene): < 5.10
AUC (GSK-650394): 0.951
pIC50 (GSK-650394): < 4.80
AUC (BMS-345541): 0.704
pIC50 (BMS-345541): 5.46
AUC (AZD7762): 0.677
pIC50 (AZD7762): 6.44
AUC (Etoposide): 0.824
pIC50 (Etoposide): 5.10
AUC (NPK76-II-72-1): 0.886
pIC50 (NPK76-II-72-1): 5.06

COLO-668 (small cell lung carcinoma, adherent)
AUC (XAV 939): 0.988
pIC50 (XAV 939): < 5.30
AUC (YK 4-279): 0.927
pIC50 (YK 4-279): < 5.00
AUC (Bexarotene): 0.968
pIC50 (Bexarotene): < 5.10
AUC (GSK-650394): 0.94
pIC50 (GSK-650394): < 4.80
AUC (BMS-345541): 0.69
pIC50 (BMS-345541): 5.47
AUC (AZD7762): 0.888
pIC50 (AZD7762): < 5.70
AUC (Etoposide): 0.611
pIC50 (Etoposide): 5.70
AUC (NPK76-II-72-1): 0.899
pIC50 (NPK76-II-72-1): < 4.99

COLO-678 (large intestine, semi-adherent)
AUC (XAV 939): 0.983
pIC50 (XAV 939): < 5.30
AUC (YK 4-279): 0.97
pIC50 (YK 4-279): < 5.00
AUC (Bexarotene): 0.98
pIC50 (Bexarotene): < 5.10
AUC (GSK-650394): 0.985
pIC50 (GSK-650394): < 4.80
AUC (BMS-345541): 0.952
pIC50 (BMS-345541): < 4.80
AUC (AZD7762): 0.93
pIC50 (AZD7762): < 5.70
AUC (Etoposide): 0.972
pIC50 (Etoposide): < 4.80
AUC (NPK76-II-72-1): 0.978
pIC50 (NPK76-II-72-1): < 4.99

COLO-679 (melanoma, adherent)
AUC (XAV 939): 0.95
pIC50 (XAV 939): < 5.30
AUC (YK 4-279): 0.829
pIC50 (YK 4-279): 5.14
AUC (Bexarotene): 0.984
pIC50 (Bexarotene): < 5.10
AUC (GSK-650394): 0.72
pIC50 (GSK-650394): 5.34
AUC (BMS-345541): 0.839
pIC50 (BMS-345541): 4.89
AUC (AZD7762): 0.541
pIC50 (AZD7762): 6.79
AUC (Etoposide): 0.261
pIC50 (Etoposide): 6.72
AUC (NPK76-II-72-1): 0.979
pIC50 (NPK76-II-72-1): < 4.99

COLO-680N (oesophagus, adherent)
AUC (XAV 939): 0.985
pIC50 (XAV 939): < 5.30
AUC (YK 4-279): 0.901
pIC50 (YK 4-279): < 5.00
AUC (Bexarotene): 0.974
pIC50 (Bexarotene): < 5.10
AUC (GSK-650394): 0.983
pIC50 (GSK-650394): < 4.80
AUC (BMS-345541): 0.905
pIC50 (BMS-345541): < 4.80
AUC (AZD7762): 0.918
pIC50 (AZD7762): < 5.70
AUC (Etoposide): 0.769
pIC50 (Etoposide): 5.14
AUC (NPK76-II-72-1): 0.984
pIC50 (NPK76-II-72-1): < 4.99

COLO-684 (endometrium, suspension)
AUC (XAV 939): 0.966
pIC50 (XAV 939): < 5.30
AUC (YK 4-279): 0.935
pIC50 (YK 4-279): < 5.00
AUC (Bexarotene): 0.971
pIC50 (Bexarotene): < 5.10
AUC (GSK-650394): 0.806
pIC50 (GSK-650394): 5.03
AUC (BMS-345541): 0.7
pIC50 (BMS-345541): 5.40
AUC (AZD7762): 0.626
pIC50 (AZD7762): 6.54
AUC (Etoposide): 0.828
pIC50 (Etoposide): 4.94
AUC (NPK76-II-72-1): 0.808
pIC50 (NPK76-II-72-1): 5.21

Source: the supplement of paper PMC4967469
